Measured values reported in PubChem BioAssay AID1745853 (National Center for Advancing Translational Sciences (NCATS), 2022).
Where “and” joins values, the source holds several entries; their conditions need not be identical. Equal entries are not always repeated. The list shows a part of the results. The main result of the screen is listed elsewhere. These columns were measured beside it and carry no call.

How the values were obtained:
Assay in all cases: Primary Screen for Target Class Profiling of Small Molecule Inhibitors of Methyltransferases
[1] = molecular target: Glycine N-methyltransferase (Homo sapiens) (UniProt Q14749); conditions: purified enzyme, MTase-Glo SAH luminescence; measured here: GNMT inhibition; at 40 µM; stronger effect = lower value
Text: (§1) PI: Matthew D. Hall Ph.D. and Quinlin M. Hanson Ph.D.
(§2) National Center for Advancing Translational Sciences (NCATS)
(§3) National Institute of Health (NIH), Rockville, MD
(§4) Target class profiling (TCP) is a chemical biology approach amenable to investigating understudied biological targets. TCP is achieved by developing a generalizable assay platform and applying it to screen a curated set of compound libraries against representative members of a target class. Small molecule methyltransferases (SMMTase) are a subclass of methyltransferase that act on metabolites to modulate signaling pathways, metabolize xenobiotics, or balance the available methyl pool. We screened four curated libraries totaling 27,574 unique compounds against the SMMTases nicotinamide N-methyltransferase (NNMT), phenylethanolamine N-methyltransferase (PNMT), histamine N-methyltransferase (HNMT), glycine N-methyltransferase (GNMT), catechol O-methyltransferase (COMT), and guanidinoacetate N-methyltransferase (GAMT). The data generated by this TCP can be leveraged for informed tool molecule development. For example, in the associated publication we identified a chemotype of HNMT-selective inhibitors. Additionally, we identified a putative SMMTase-selective inhibitor with potential as a tool molecule for studying broader methyltransferase biology.
(§5) High-through put screening assays were developed at the National Center for Advancing Translational Science (NCATS) for the enzymes NNMT, PNMT, HNMT, GNMT, COMT, and GAMT. Enzymatic activity was measured as a function of SAM cofactor conversion using the MTase Glo kit (Promega) for all enzymes. All assays were performed in 1536-well format with substrates and SAM concentrations at KM values. Enzyme concentration and assay timing were optimized for 10-20% SAM conversion. Initial screening of 27,574 compounds was done as single-point assays using the highest compound concentration (40 uM). […] These compounds were replated in 11-point dose response and assayed against NNMT, PNMT, HNMT, GNMT, COMT, GAMT, and a counter-assay. The IC50 and efficacy (maximal response) values were determined for each dose-response curve. These values are also accounted for in the area under the curve (AUC) values.
(§6) PROTOCOL TABLE (as described by Inglese J, Shamu CE and Guy RK. 2007)
(§7) SEQUENCE No. (e.g., 1, 2, 3, etc.); […] (e.g., Cells, Incubation, Reagent, etc.); VALUE; DESCRIPTION.
(§8) 1; Reagent; 2 uL; SMMTase Enzyme (2x) in reaction buffer, columns 1- 48.
(§9) 2; Reagent; 1 uL; SAM (4x) in reaction buffer, columns 1-48.
(§10) 3; Controls; 23 nL; DMSO in column 4; sinefungin in DMSO (0 uM - 40 uM) in 7-point 1:2 dilution series (n = 2) in column 2.
(§11) 4; Compounds; 23 nL; Columns 5-48.
(§12) 5; Reagent; 1 uL; Substrate (4x) in reaction buffer, columns 2-48.
(§13) 6; Time; 20-30 min; Incubation.
(§14) 7; Reagent; 1 uL; MTase-Glo reagent (5X), columns 1-48.
(§15) 8; Time; 30 min; Incubation.
(§16) 9; Reagent; 5 uL; MTase-Glo Detection reagent, columns 1-48.
(§17) 10; Time; 30 min; Incubation, luminescence evolution.
(§18) 11; Detection; Luminescence; ViewLux uHTS Microplate Imager (PerkinElmer).
(§19) NOTES (numbers refer to Sequence numbers above)
(§20) 1, 2, 5. White Medium Binding Greiner 1536-well plates (Cat #789175-F, Greiner Bio-One, Monroe, NC); Reaction buffer: 50 mM Tris, pH 8.0, 3 mM MgCl2, 1 mM EDTA, 50 mM NaCl, 1 mM DTT, and 0.1 mg/mL BSA. Evaporation was prevented by covering assay plates with metal lids containing holes to allow gas diffusion.
(§21) 1. Six SMMTase were profiled: HNMT, GNMT, PNMT, COMT, NNMT, GAMT
(§22) 5. The corresponding substrate was used for each enzyme: HNMT - 5.3 uM Histamine; GNMT - >500 uM Glycine; PNMT - 16.2 uM Norephinephrine; COMT - 13.7 uM Norephinephrine; NNMT - 3.8 uM Nicotinamide; GAMT - 2.5 uM Guanidinoacetate.6, 8, 10. Room temperature
(§23) 6. Final reaction conditions: 10 nM COMT, 5 uM SAM, 15 uM norepinephrine, 50 mM Tris, pH 8.0, 3 mM MgCl2, 1 mM EDTA, 50 mM NaCl, 1 mM DTT, and 0.1 mg/mL BSA; refer to tables 2 and S1 for specific timing.
8. […]

[2] = molecular target: Guanidinoacetate N-methyltransferase (Homo sapiens) (UniProt Q14353); conditions: purified enzyme, MTase-Glo SAH luminescence; measured here: GAMT inhibition; at 40 µM; stronger effect = lower value
Text: as §1, §2, §3, §4, §5, §6, §7, §8, §9, §10, §11, §12, §13, §14, §15, §16, §17, §18, §19, §20, §21, §22, §23
8. […]

[3] = molecular target: Histamine N-methyltransferase (Homo sapiens) (UniProt P50135); conditions: purified enzyme, MTase-Glo SAH luminescence; measured here: HNMT inhibition; at 40 µM; stronger effect = lower value
Text: as §1, §2, §3, §4, §5, §6, §7, §8, §9, §10, §11, §12, §13, §14, §15, §16, §17, §18, §19, §20, §21, §22, §23
8. […]

[4] = molecular target: Nicotinamide N-methyltransferase (Homo sapiens) (UniProt P40261); conditions: purified enzyme, MTase-Glo SAH luminescence; measured here: NNMT inhibition; at 40 µM; stronger effect = lower value
Text: as §1, §2, §3, §4, §5, §6, §7, §8, §9, §10, §11, §12, §13, §14, §15, §16, §17, §18, §19, §20, §21, §22, §23
8. […]

[5] = molecular target: Phenylethanolamine N-methyltransferase (Homo sapiens) (UniProt P11086); conditions: purified enzyme, MTase-Glo SAH luminescence; measured here: PNMT inhibition; at 40 µM; stronger effect = lower value
Text: as §1, §2, §3, §4, §5, §6, §7, §8, §9, §10, §11, §12, §13, §14, §15, §16, §17, §18, §19, §20, §21, §22, §23
8. […]
On the % scale 0 is the no-effect control and ±100 the full control effect.

Structure (SMILES)	activity change, negative = inhibition [1] [%]	activity change, negative = inhibition [2]	activity change, negative = inhibition [3] [%]	activity change, negative = inhibition [4]	activity change, negative = inhibition [5]
CCOCCCNC(=O)N1Cc2c(sc3c2CCCC3)-n2cccc2C1c1cccc(F)c1 (stereo not drawn)	-3.1	4.96%	-0.002	-11.8%	2.41%
Cc1ccc(C)c(N2C(=O)c3cc4sccc4n3CC2(C)C(=O)NC2CCCCC2C)c1 (stereo not drawn)	3.09	0%	4.15	2.71%	0.765%
CCOc1ccc2nc(SCCN3CCOCC3)[nH]c2c1	-2.52	-7.17%	-5.32	-17.3%	-5.03%
Cc1ccccc1CSc1nnc2n(C)c(=O)c3ccc(C(=O)NC4CCCC4)cc3n12	-3.01	0%	5.69	4.67%	1.88%
NC12CC3CC(CC(C3)C1)C2	6.57	-4.45%	9.58	-12.6%	-3.9%
COc1ccc(-c2nnc3n(Cc4ccccc4Cl)c(=O)c4ccccc4n23)c(OC)c1	-9.6	4.35%	-3.34	-3.71%	-0.708%
COCCN1C(=O)CS(=O)C12CCN(S(=O)(=O)c1ccccc1)CC2 (stereo not drawn)	-0.323	1.56%	1.91	1%	0.722%
COc1cccc(CCC(=O)N2CCC3(CC2)N=C(c2ccccc2)NO3)c1	-8.77	-13.4%	-6.23	-21.7%	-13.9%
Cc1ccc(C)c(Cn2nc3n(C(C)C)c(=O)c4ccc(C(=O)NC(C)C)cc4n3c2=O)c1	5.2	1.13%	9.42	3.49%	8.15%
Cc1ccc(N2C(=O)c3cc4occc4n3CC2(C)C(=O)NC2CCCC(C)C2C)cc1C (stereo not drawn)	-12	-8.34%	-0.212	-11.8%	-10.3%
Cc1cccc(-c2nnn3c2nc(N2CCOCC2)c2cc(Cl)ccc23)c1	-2.2	0.11%	6.77	11.4%	1.55%
CCOCC(=O)Nc1nn(-c2ccc(F)cc2)c2cccc(N3CCOC3=O)c12	1.41	0.1%	2.14	-0.685%	-2.25%
COc1cc(NS(=O)(=O)c2ccc(N)cc2)nc(C)n1	10	7.14%	8.64	-4.16%	2.76%
CCCNC(=O)O[C@@H]1CC[C@]2(C)[C@H](CC[C@@H](O)[C@H]2CC(=O)N2CCCC2)[C@]1(C)CO	-4.4	-5.89%	-2.98	-12%	-21.3%
Cc1cnc(CCNC(=O)c2cccs2)n1C1CCC1	-6.84	-6.74%	-55.7	-11.6%	7.64%
CN1C(=O)c2cc(C(=O)NCc3ccc(Cl)cc3)nn2CC1(C)C(=O)NC1CCCCC1 (stereo not drawn)	-1	3.18%	8.95	6.78%	3.42%
CCS(=O)(=O)Nc1ccc(C)n(CC(=O)NC2CCCCC2)c1=O	-2.73	-2.7%	-2.39	-6.32%	9.99%
CO[C@H]1O[C@@H]2O[C@@]3(C)CC[C@H]4[C@H](C)CC[C@@H]([C@H]1C)[C@@]24OO3	–	4.04% and 3.27%	–	-9.2% and -6.38%	2.96% and 6.84%
O=c1[nH]c2ccc(S(=O)(=O)NCCC3=CCCCC3)cc2[nH]1	12.7	0.848%	11.1	4.11%	-8.54%
